Results: the supplement of paper PMC9588766
Where a name gives a salt, the structure may show the parent alone. In all, about 1,900 compounds were measured (“cell viability of compound + 1 nM pemigatinib relative to pemigatinib-only (DMSO) wells”: median about 0.95, lowest 2% from about 0.22 on). Some of the results follow.

Test system: PDC-DUC18828
Test: cell viability of compound + 1 nM pemigatinib relative to pemigatinib-only (DMSO) wells (fraction); PDC-DUC18828 is a patient-derived cholangiocarcinoma cell line; higher = less growth inhibition
Conditions: first compound 1 µM; pemigatinib concentration 1 nM; 72 h
Experimental: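 Selleck Bioactive library screen in the patient-derived FGFR2 fusion-positive ICC cell line PDC-DUC18828 (500 cells/well). Each compound was tested at 1 uM with 1 nM pemigatinib, in triplicate, for 72 h. Viability was read by CellTiter-Glo and normalised to plate DMSO controls. Value is the paper's averaged normalised viability.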

SMILES | cell viability
C=C(c1ccc(C(=O)O)cc1)c1cc2c(cc1C)C(C)(C)CCC2(C)C [Bexarotene] + CCN1C(=O)N(c2c(F)c(OC)cc(OC)c2F)Cc2cnc3[nH]c(CN4CCOCC4)cc3c21 [pemigatinib] | 1.07
COc1cc(/C=C/C(=O)CC(=O)/C=C/c2ccc(O)c(OC)c2)ccc1O [Curcumin] + CCN1C(=O)N(c2c(F)c(OC)cc(OC)c2F)Cc2cnc3[nH]c(CN4CCOCC4)cc3c21 [pemigatinib] | 0.952
Cc1cc2c(F)c(Oc3ncnn4cc(OC[C@@H](C)O)c(C)c34)ccc2[nH]1 + CCN1C(=O)N(c2c(F)c(OC)cc(OC)c2F)Cc2cnc3[nH]c(CN4CCOCC4)cc3c21 [pemigatinib] | 1.05
O=C(O)CSCC(=O)NC1CCSC1=O (stereo unspecified) [Erdosteine] + CCN1C(=O)N(c2c(F)c(OC)cc(OC)c2F)Cc2cnc3[nH]c(CN4CCOCC4)cc3c21 [pemigatinib] | 0.954
CC(C)CN(C[C@@H](O)[C@H](Cc1ccccc1)NC(=O)O[C@H]1CO[C@H]2OCC[C@H]21)S(=O)(=O)c1ccc(N)cc1 [Darunavir Ethanolate] + CCN1C(=O)N(c2c(F)c(OC)cc(OC)c2F)Cc2cnc3[nH]c(CN4CCOCC4)cc3c21 [pemigatinib] | 1.01
Nc1nc(Nc2ccc3c(c2)CCC(N2CCCC2)CC3)nn1-c1cc2c(nn1)-c1ccccc1CCC2 (stereo unspecified) + CCN1C(=O)N(c2c(F)c(OC)cc(OC)c2F)Cc2cnc3[nH]c(CN4CCOCC4)cc3c21 [pemigatinib] | 0.77
CCCC(=O)OCOC(=O)C1=C(C)NC(C)=C(C(=O)OC)C1c1cccc(Cl)c1Cl (stereo unspecified) [Clevidipine Butyrate] + CCN1C(=O)N(c2c(F)c(OC)cc(OC)c2F)Cc2cnc3[nH]c(CN4CCOCC4)cc3c21 [pemigatinib] | 1.02
NC(CO)C(=O)NNCc1ccc(O)c(O)c1O (stereo unspecified) [Benserazide HCl] + CCN1C(=O)N(c2c(F)c(OC)cc(OC)c2F)Cc2cnc3[nH]c(CN4CCOCC4)cc3c21 [pemigatinib] | 1.03
C[C@H]1COc2c(N3CCN(C)CC3)c(F)cc3c(=O)c(C(=O)O)cn1c23 [Levofloxacin] + CCN1C(=O)N(c2c(F)c(OC)cc(OC)c2F)Cc2cnc3[nH]c(CN4CCOCC4)cc3c21 [pemigatinib] | 0.979
Fc1ccc([C@@H]2CCNC[C@H]2COc2ccc3c(c2)OCO3)cc1 [Paroxetine HCl] + CCN1C(=O)N(c2c(F)c(OC)cc(OC)c2F)Cc2cnc3[nH]c(CN4CCOCC4)cc3c21 [pemigatinib] | 0.857
Nc1nc(O)c2ncn(CCC(CO)CO)c2n1 [Penciclovir] + CCN1C(=O)N(c2c(F)c(OC)cc(OC)c2F)Cc2cnc3[nH]c(CN4CCOCC4)cc3c21 [pemigatinib] | 0.97
